Measured values as given in the supplement of paper PMC10126150.
Values marked as one replicate rest on one cluster of the flow cell; about a third of the high ones do not repeat.

system: ATP; assay: switch fluorescence ratio, 500 uM ATP over buffer (Cy3 cluster intensity, sum of 5 cycles each) (fold (ratio)); higher = stronger signal-on switching upon ATP binding; sequences stand for … in TCGTCGGCAGCGTCAGATGTGTATAAGAGACAGTTTTTTTTTTTTTTTTTTTTTTTTT…TC; details: aptamer strand: ATP DNA aptamer (quencher-CACCTGGGGGAGTATTGCGGAGGAAGG + anchor), 100 nM annealed; ATP concentration: 500 uM; one replicate
In short: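 Clusters with intensities outside 100-1000 RFU were excluded. The remaining Cy3-labelled switching-strand clusters on a modified Illumina MiSeq flow-cell had been annealed to 100 nM quencher-labelled ATP aptamer and imaged in selection buffer, then after 15 min with 500 uM ATP at 22 °C, for five cycles separated by NaOH stripping and re-annealing. The fluorescence ratio, averaged per switch-domain sequence, is each cluster's summed target-cycle Cy3 intensity over its summed buffer-cycle Cy3 intensity.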
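Also: ATP exposure 15 min at 22 °C before imaging.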

Sequence | switch fluorescence ratio
TCTGGAGGTG | 1.03
TCTGGCAGTT | 1.02
TCTGGCATTC | 1.11
TCTGGCCTAT | 1.02
TCTGGGATAC | 4.1
TCTGGGGGA | 0.993
TCTGGGTCAT | 0.993
TCTGGGTGTG | 1.01
TCTGGTACCA | 1.03
TCTGGTGTCA | 1.01
TCTGGTTCTA | 0.96
TCTGTAACC | 1.85
TCTGTACTCG | 1
TCTGTAGGCA | 0.967
TCTGTCTGGG | 1.03
TCTGTTATTC | 1.06
TCTGTTGTGG | 0.984
TCTGTTTATA | 0.979
TCTGTTTCAC | 1.04
TCTGTTTTAC | 1.08
TCTTAAACGC | 1.45
TCTTAAGGGG | 1.36
TCTTAATCGT | 1.02
TCTTACATAA | 1.05
TCTTACTAAA | 1.05
TCTTAGTGCA | 1.01

Sequence | switch fluorescence ratio
TCTTAGTTG | 0.975
TCTTATTGAG | 0.976
TCTTATTGTT | 1
TCTTCAGGCC | 0.976
TCTTCGCGAA | 1.78
TCTTCGGTGC | 1.25
TCTTCGTGCA | 1.06
TCTTCTCGGA | 0.996
TCTTCTCTAC | 1.12
TCTTCTTAGT | 0.995
TCTTGAAATC | 1.01
TCTTGACACA | 1.04
TCTTGCAGGC | 1.06
TCTTGCGACA | 1.01
TCTTGTCAAT | 1.06
TCTTGTTGGA | 1.03
TCTTTAAAT | 1.08
TCTTTACTTA | 1.04
TCTTTATCGA | 1.01
TCTTTATCTT | 1.02
TCTTTCAATT | 1.02
TCTTTCATTA | 1.07
TCTTTCCGAT | 1.11
TCTTTCTGGC | 0.91
TCTTTGAGTT | 0.974
TCTTTGTAAG | 1.19

Sequence | switch fluorescence ratio
TCTTTGTTGC | 1.06
TCTTTTTGAG | 0.959
TGAAAAAACC | 1.13
TGAAAGGGCC | 1.01
TGAAAGGGGT | 0.972
TGAAAGTAAT | 1.02
TGAAATAGGC | 1.49
TGAACCGAAC | 2.47
TGAACCTCCT | 1.47
TGAACGGCCT | 1.02
TGAACTACTC | 1.12
TGAAGAACAT | 1.05
TGAAGAAGTC | 0.963
TGAAGAGCTA | 1.02
TGAAGAGTAG | 1.02
TGAAGCTCAG | 1.02
TGAAGGCAGC | 1.05
TGAAGGCATC | 1.03
TGAAGGCCGA | 1.02
TGAAGGGACA | 1.12
TGAAGGTATG | 0.986
TGAAGGTCTG | 1.02
TGAAGTCCGC | 1.73
TGAAGTGGG | 0.974
TGAATATCCC | 1.03
